Experimental data published in the RNAGym collection of RNA variant scans (doi:10.1101/gad.245936.114).
Variants at the floor of the assay are shown more often than the library holds them.

B1: tRNA (parent)
chain: CUCUCGGUAGCCAAGUUGGUUUAAGGCGCAAGACUUUAAUUUAUCACUACGAAAUCUUGAGAUCGGGCGUUCGACUCGCCCCCGGGAGAUUUUUUCCUCGAGCAA

Variants of: B1
Assay: nonsense suppression (GFP-seq) (ratio to wild type); higher = more function; SUP4oc tRNA, yeast GFP reporter sort-seq
Procedure, shortened: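 Each variant's nonsense suppression (GFPSEQ) is a cell-share-weighted bin median GFP/RFP relative to the unmutated parent tRNA. Yeast with genome-integrated tRNA variants from a ~3% random-mutation library, a galactose-driven GFP ochre reporter and RFP were grown in raffinose/galactose medium with 80 mg/L adenine, then sorted into GFP/RFP bins for Illumina sequencing. Variants needed ≥100 reads and ≥30 cells.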

| Variant | nonsense suppression |
| --- | --- |
| C56U U57A A74C | ≤ 0.026 |
| C56U U58C | ≤ 0.026 |
| C56U U58C G66U | ≤ 0.026 |
| C56U U58G G59A | ≤ 0.026 |
| C56U U58G G86A | ≤ 0.026 |
| C56U U58G G88A | ≤ 0.026 |
| C56U U63A C81G G84C A87U | ≤ 0.026 |
| C56U U70C C72G G78U | ≤ 0.026 |
| C56U U76C | ≤ 0.026 |
| U57A A74G | ≤ 0.026 |
| U57A A87U | ≤ 0.026 |
| U57A C72G G73A | ≤ 0.026 |
| U57A C75A | 0.681 |
| U57A C77A A87C | ≤ 0.026 |
| U57A C79A A87G | ≤ 0.026 |
| U57A C79A A87U | ≤ 0.026 |
| U57A G59A U70C A74C | ≤ 0.026 |
| U57A G61A | 0.0464 |
| U57A G61U | ≤ 0.026 |
| U57A G61U A87G | ≤ 0.026 |
| U57A G65C G86C | ≤ 0.026 |
| U57A G67A | ≤ 0.026 |
| U57A G67C A87C | ≤ 0.026 |
| U57A G67U | ≤ 0.026 |

| Variant | nonsense suppression |
| --- | --- |
| U57A G69A U70A U76C | ≤ 0.026 |
| U57A G69U U71A | ≤ 0.026 |
| U57A G73U | ≤ 0.026 |
| U57A G78A | ≤ 0.026 |
| U57A G84A A89G | ≤ 0.026 |
| U57A G85A G86A | ≤ 0.026 |
| U57A G86A | ≤ 0.026 |
| U57A G88C | ≤ 0.026 |
| U57A U58C G84C | ≤ 0.026 |
| U57A U63A C80U C82A | ≤ 0.026 |
| U57A U63C | 0.0744 |
| U57A U70C | ≤ 0.026 |
| U57A U70G | ≤ 0.026 |
| U57A U76C A87C | ≤ 0.026 |
| U57A U76C A89G | ≤ 0.026 |
| U57A U76C A89U | ≤ 0.026 |
| U57C A60U | 0.0266 |
| U57C A62C | ≤ 0.026 |
| U57C A62U G84A | ≤ 0.026 |
| U57C A74C U76G A87U | ≤ 0.026 |
| U57C A74U C82A | ≤ 0.026 |
| U57C A87C | ≤ 0.026 |
| U57C A89C | ≤ 0.026 |
| U57C A89G | ≤ 0.026 |

| Variant | nonsense suppression |
| --- | --- |
| U57C A89U | ≤ 0.026 |
| U57C C64U U71A U76C | ≤ 0.026 |
| U57C C68G C75G | ≤ 0.026 |
| U57C C72U C75U | ≤ 0.026 |
| U57C C75A | ≤ 0.026 |
| U57C C75G C79A G88C | ≤ 0.026 |
| U57C C79A | ≤ 0.026 |
| U57C C79U | ≤ 0.026 |
| U57C C82U | ≤ 0.026 |
| U57C C83U A87C | ≤ 0.026 |
| U57C G61A C64A G67A G88U | ≤ 0.026 |
| U57C G66C G67A | ≤ 0.026 |
| U57C G66U G67C A87C | ≤ 0.026 |
| U57C G67A C77A | ≤ 0.026 |
| U57C G67C U70C U71G C77A | ≤ 0.026 |
| U57C G69A A74G | ≤ 0.026 |
| U57C G73A | 0.0414 |
| U57C G73C | ≤ 0.026 |
| U57C G84A | ≤ 0.026 |
| U57C G85A | 0.757 |
| U57C G86U | ≤ 0.026 |
| U57C G88C | ≤ 0.026 |
| U57C U58A G61U | ≤ 0.026 |
| U57C U70A A74C | ≤ 0.026 |

| Variant | nonsense suppression |
| --- | --- |
| U57C U70A G85C G86U | ≤ 0.026 |
| U57C U76A | ≤ 0.026 |
| U57G A60G G69A C72G | ≤ 0.026 |
| U57G A60U A62U U71A | ≤ 0.026 |
| U57G A74C G84U | ≤ 0.026 |
| U57G A87C | ≤ 0.026 |
| U57G C68G | ≤ 0.026 |
| U57G C68G C75G | ≤ 0.026 |
| U57G C72A C77A A87U | ≤ 0.026 |
| U57G C72A C77G | ≤ 0.026 |
| U57G C72G | ≤ 0.026 |
| U57G C79U | ≤ 0.026 |
| U57G C80G C82G | ≤ 0.026 |
| U57G C83G | ≤ 0.026 |
| U57G G59A G78C | ≤ 0.026 |
| U57G G61A | ≤ 0.026 |
| U57G G65A | ≤ 0.026 |
| U57G G65U | ≤ 0.026 |
| U57G G69C C72A | ≤ 0.026 |
| U57G G73C | ≤ 0.026 |
| U57G G73U | ≤ 0.026 |
| U57G G78A | 0.0374 |
| U57G G84C | ≤ 0.026 |
| U57G U58A | ≤ 0.026 |

| Variant | nonsense suppression |
| --- | --- |
| U57G U58A G65A | ≤ 0.026 |
| U57G U70A G78U | ≤ 0.026 |
| U57G U70C | ≤ 0.026 |
| U57G U71G | ≤ 0.026 |
| U57G U76C | ≤ 0.026 |
| U58A A60G C80A | ≤ 0.026 |
| U58A A62C | ≤ 0.026 |
| U58A A62G G78C C82U | ≤ 0.026 |
| U58A C64U G65C A89G | ≤ 0.026 |
| U58A C72G | ≤ 0.026 |
| U58A C72U | ≤ 0.026 |
| U58A C80A A87G | ≤ 0.026 |
| U58A C81A | ≤ 0.026 |
| U58A C83G | ≤ 0.026 |
| U58A G59A A62G | ≤ 0.026 |
| U58A G59A U63A G69C U70G | ≤ 0.026 |
| U58A G61A U71A | ≤ 0.026 |
| U58A G66U G86U | ≤ 0.026 |
| U58A G67U | ≤ 0.026 |
| U58A G69C | ≤ 0.026 |
| U58A G86A G88C | ≤ 0.026 |
| U58A U70C | ≤ 0.026 |
| U58C A60C | 0.0568 |
| U58C A60C U63A | ≤ 0.026 |

| Variant | nonsense suppression |
| --- | --- |
| U58C A74U | ≤ 0.026 |
| U58C A89C | ≤ 0.026 |
| U58C A89G | ≤ 0.026 |
| U58C A89U | ≤ 0.026 |
| U58C C68U C77A C79A | ≤ 0.026 |
| U58C G59C G78A | ≤ 0.026 |
| U58C G61U | ≤ 0.026 |
| U58C G61U U63C | ≤ 0.026 |
| U58C G65C | ≤ 0.026 |
| U58C G65C G86U | ≤ 0.026 |
| U58C G73A | 0.0472 |
| U58G A60U | ≤ 0.026 |
| U58G A60U G73A G88C | ≤ 0.026 |
| U58G A74U C75A | ≤ 0.026 |
| U58G A87G | ≤ 0.026 |
| U58G C64G C80A | ≤ 0.026 |
| U58G C64G G78A G86C | ≤ 0.026 |
| U58G C68A A74G | ≤ 0.026 |
| U58G C68U | ≤ 0.026 |
| U58G C75A U76G | ≤ 0.026 |
| U58G C77A | ≤ 0.026 |
| U58G C77G | ≤ 0.026 |
| U58G C80A | ≤ 0.026 |
| U58G C81G | ≤ 0.026 |

| Variant | nonsense suppression |
| --- | --- |
| U58G C81U | ≤ 0.026 |
| U58G C82G | ≤ 0.026 |
| U58G C83G | ≤ 0.026 |
| U58G C83U | ≤ 0.026 |
| U58G G59A | ≤ 0.026 |
| U58G G59U A60G | ≤ 0.026 |
| U58G G59U G65A | ≤ 0.026 |
| U58G G61A | ≤ 0.026 |
| U58G G61A C82G | ≤ 0.026 |
| U58G G61A C83A | ≤ 0.026 |
| U58G G61A U63C G78A | ≤ 0.026 |
| U58G G65A | ≤ 0.026 |
| U58G G65A G88A | ≤ 0.026 |
| U58G G65C | ≤ 0.026 |
| U58G G66A | ≤ 0.026 |
| U58G G66A G86C | ≤ 0.026 |
| U58G G66C C80G | 0.0324 |
| U58G G66C U71C G78U | ≤ 0.026 |
| U58G G88C | ≤ 0.026 |
| U58G U63A | ≤ 0.026 |
| U58G U70A | ≤ 0.026 |
| U58G U71A G73A C82G | ≤ 0.026 |
| G59A A60C C80G | ≤ 0.026 |
